The campaign covered roughly 310,000 compounds. About 14,000 (4.5%) showed an effect of 50% or more. The effect is printed as a negative number. The list shows a part of the results. Where a SMILES comes first, the peptide text is derived from it. [ ]: non-standard residue; d: D form. The star is where a group is joined. ξ: configuration not given here. ξY = NC(Cc1ccc(O)cc1)C(=O)O; Cbz = O=C(OCc1ccccc1)*; OtBu = CC(C)(C)O*; tBu = CC(C)(C)*
Target: human ether-à-go-go-related gene (hERG) potassium channel (human, UniProt Q12809)
Experiment: primary screen, population patch clamp on CHO cells stably expressing hERG
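Further: peak tail current of the secondary pulse compared with the same well before compound.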

Sequence of human ether-à-go-go-related gene (hERG) potassium channel (Q12809 whole entry, looked up): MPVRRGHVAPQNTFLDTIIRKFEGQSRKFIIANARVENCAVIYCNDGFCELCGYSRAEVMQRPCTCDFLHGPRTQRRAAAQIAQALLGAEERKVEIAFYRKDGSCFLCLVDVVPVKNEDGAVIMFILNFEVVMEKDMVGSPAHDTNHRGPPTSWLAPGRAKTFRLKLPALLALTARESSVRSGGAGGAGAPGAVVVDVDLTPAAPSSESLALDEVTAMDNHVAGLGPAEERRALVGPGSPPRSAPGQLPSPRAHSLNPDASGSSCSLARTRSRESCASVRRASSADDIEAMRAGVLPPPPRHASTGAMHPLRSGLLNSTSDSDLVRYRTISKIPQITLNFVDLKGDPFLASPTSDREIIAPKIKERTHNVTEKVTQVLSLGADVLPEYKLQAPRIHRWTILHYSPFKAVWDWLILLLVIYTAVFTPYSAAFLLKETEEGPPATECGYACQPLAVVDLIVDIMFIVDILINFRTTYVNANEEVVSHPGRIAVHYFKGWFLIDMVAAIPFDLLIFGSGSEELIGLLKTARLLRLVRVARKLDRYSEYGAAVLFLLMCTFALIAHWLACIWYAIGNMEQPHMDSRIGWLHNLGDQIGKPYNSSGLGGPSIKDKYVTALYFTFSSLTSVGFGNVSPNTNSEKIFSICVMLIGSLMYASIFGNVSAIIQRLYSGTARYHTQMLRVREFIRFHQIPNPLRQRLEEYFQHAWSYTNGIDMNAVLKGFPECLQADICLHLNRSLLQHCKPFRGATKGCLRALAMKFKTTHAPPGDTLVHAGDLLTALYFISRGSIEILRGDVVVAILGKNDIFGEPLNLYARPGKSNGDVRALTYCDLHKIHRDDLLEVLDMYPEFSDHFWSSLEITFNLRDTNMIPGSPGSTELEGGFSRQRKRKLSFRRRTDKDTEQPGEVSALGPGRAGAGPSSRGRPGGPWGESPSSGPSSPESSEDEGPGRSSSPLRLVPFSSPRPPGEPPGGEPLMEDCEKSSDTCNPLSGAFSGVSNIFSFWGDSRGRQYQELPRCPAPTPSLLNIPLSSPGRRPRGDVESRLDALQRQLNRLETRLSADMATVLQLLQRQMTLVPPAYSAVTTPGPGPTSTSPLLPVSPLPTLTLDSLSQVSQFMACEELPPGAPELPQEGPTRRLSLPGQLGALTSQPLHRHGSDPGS

Row | Structure (SMILES) | hERG current change (%, negative = inhibition) at 10uM [%]
1 | CCC(CC)c1nnc(NC(=O)C2CC(=O)N(CCc3ccc(OC)c(OC)c3)C2)s1 (stereo not shown) | -0.537
2 | Cc1ccc(NC(=O)Nc2cc(S(C)(=O)=O)ccc2Cl)cc1 | -2.55
3 | COc1ccc(CC(=O)Nc2ccc(N3CCCC3)c(C)c2)cc1 | 5.59
4 | CC(C)NC(=O)c1ccc(OC2CSC2)cc1 | -8.57
5 | O=C(NCCO)c1cc2cc(Cl)cc(Cl)c2oc1=O | -3.65
6 | C/C(=N\NC(=O)c1nn(C)cc1Br)c1cccc(NC(=O)c2ccncc2)c1 | -1.29
7 | CCc1cccc2c(C(=O)COC(=O)c3nccnc3N)c[nH]c12 | -5.69
8 | Cc1c(C(=O)OC2CCCC2)[nH]c2c1C(=O)CC(c1ccco1)C2 (stereo not shown) | 8.95
9 | O=C(c1ccco1)N1CCN(C(=O)c2ccc(CS(=O)c3ccc(F)cc3)o2)CC1 (stereo not shown) | 11.8
10 | COc1cc(NC(=O)c2cc(-c3cccnc3)nc3ccc(C)cc23)c(OC)cc1Cl | 0.136
11 | CC(C)(Oc1ccc(Cl)cc1)C(=O)NCc1ccco1 | 2.22
12 | CCC(C)NC(=O)C1CCN(C(=O)N(C)C)CC1 (stereo not shown) | 9.88
13 | CCCSc1nnc(Sc2nnnn2-c2ccccc2)s1 | -16.7
14 | CCCOC(=O)Nc1ccc(C(N)=O)cc1 | 1.57
15 | COC(=O)CCCC(=O)N1CCCC(C(=O)c2ccccc2SC)C1 (stereo not shown) | -8.08
16 | Cc1nc(S(=O)(=O)NC2CCCCC2)c(C#N)c(C)c1Cl | -18.1
17 | CC(C)c1nnc(NC(=O)c2cnccn2)s1 | 16.2
18 | N#Cc1cccnc1N1CCN(C(=O)c2ccccc2)CC1 | 19.5
19 | CCC(C)NC(=O)CSc1nnc(-c2ccncc2)n1-c1ccc(OC)cc1 (stereo not shown) | -0.947
20 | CC(C)OC(=O)c1ccc(OC(=O)c2cccnc2)cc1 | 12.5
21 | COc1ccc(/C=N/NC(=O)C[n+]2ccccc2)c(OC)c1OC.[Cl-] | -0.0621
22 | CCOC(=O)C1C(=O)NC(N2CCN(c3ccccc3)CC2)=NC1c1ccccc1 (stereo not shown) | -6.12
23 | N#Cc1sc2nc(C3CC3)cc(-c3ccc(Cl)cc3)c2c1N | 6.54

Row | Structure (SMILES) | hERG current change (%, negative = inhibition) at 10uM [%]
24 | CC(C)(C)OC(=O)C(Cc1ccc(OC(C)(C)C)cc1)NC(=O)CNC(=O)OCc1ccccc1 (stereo not drawn) (Cbz-Gly-[ξY](tBu)-OtBu) | -34
25 | Cc1cccc(N2C(S)=C(C#N)C(=O)NC23CCCCC3)c1 | -7.13
26 | O=c1[nH]ncn1-c1cccc(C(F)(F)F)c1 | 10.8
27 | O=C(NC(=S)NCCc1ccccc1)c1ccccc1 | 4.4
28 | N#CC1=C(N)OC2=C(C(=O)CCC2)C1c1ccccc1 (stereo not shown) | -11.9
29 | COc1ccccc1NS(=O)(=O)c1cc(C(=O)N2CCCC2)ccc1C | -9.55
30 | Cc1nc2ccccc2n1CC(O)Cn1c2ccccc2c2ccccc21 (stereo not shown) | -9.05
31 | CC(C)(C)C(=O)N(Cc1ccc(Cl)cc1)Cc1cccnc1 | -17.3
32 | O=C(O)[C@H](Cc1ccccc1)NC(=O)N1CCCCCC1 | 10.8
33 | Cc1cccc(Nc2ncc3c(n2)CC(c2ccco2)CC3=O)c1 (stereo not shown) | 1.2
34 | CC(C)(C)n1nc2c(c1NC(=O)c1ccc(Cl)c([N+](=O)[O-])c1)CS(=O)(=O)C2 | -6.16
35 | CN(C)C(=O)Oc1cccc2c(OC(=O)N(C)C)cccc12 | 3.41
36 | COc1ccc(NC(=O)c2ccc(S(=O)(=O)N3CCCC3)cc2)cc1OC | -158
37 | COC(=O)c1ccccc1NC(=O)CSc1nnc(-c2cccnc2)n1C | -6.21
38 | O=[N+]([O-])c1ccc(N2CCNCC2)c(Cl)c1 | -6.48
39 | C=CCCC(=O)Nc1nc(C)c(-c2csc(Nc3ccc(Cl)cc3)n2)s1 | 14.9
40 | Cn1c(=O)c2c(ncn2CCO)n(C)c1=O | 14.1
41 | O=C1C(C=NCc2ccccn2)=C(O)c2ccccc21 | -10.1
42 | O=C(CNc1cc(S(=O)(=O)N2CCOCC2)ccc1NCC1CCCO1)Nc1ccc(F)c(F)c1 (stereo not shown) | -24.4
43 | Cc1cccc(N=C2NC(=O)S/C2=C\c2ccco2)c1 | 8.61
44 | COCCn1c(COc2cccc(OC)c2)nnc1SCC(=O)NC1CCCC1 | -7.67
45 | O=C(CCc1nnc(CCc2c[nH]c3ccccc23)o1)NC1CCC1 | 1.01
46 | CSCCC(NS(=O)(=O)c1ccc2[nH]c(=O)c(=O)[nH]c2c1)C(=O)O (stereo not shown) | 1.26

Row | Structure (SMILES) | hERG current change (%, negative = inhibition) at 10uM [%]
47 | COc1ccc(Nc2cccc3ccccc23)cc1 | 13.2
48 | CCOc1ccc(CCNC(=O)CSc2n[nH]c(N)n2)cc1OCC | 16.7
49 | Cc1nc2scc(C)n2c(=O)c1S(=O)(=O)Nc1ccc(N2CCOCC2)c(Cl)c1 | 14.8
50 | COC(C(=O)Nc1ccnn1C1CCN(Cc2ccccn2)CC1)c1ccccc1 (stereo not shown) | 10.4
51 | O=C(Nc1nc2ccc(Cl)cc2s1)C1CC1 | 28.7
52 | CSc1ccccc1OCc1cc(C(=O)N2CCSCC2)no1 | 0.366
53 | CC(C)OCP(=O)(c1ccccc1)c1ccccc1 | 2.96
54 | O=C(O)[C@H](Cc1ccccc1)NC(=O)N1CCOCC1 | -7.49
55 | COC(=O)C1CCN(C(=O)Cc2ccc(OC)c(OC)c2)CC1 | 0.292
56 | COC(=O)C1CCN(C(=O)COC(=O)C2CCN(S(=O)(=O)c3ccc4c(c3)OCCO4)CC2)CC1 | 11.2
57 | COCCN(C(=O)COC(=O)CCC(=O)c1ccc(C)cc1)c1c(N)n(Cc2ccccc2)c(=O)[nH]c1=O | -6.05
58 | COc1ccc(S(=O)(=O)Oc2ccc3cccc(N)c3c2)cc1 | 4.34
59 | CCOc1cc(CN2CCOCC2)cc(C(C)=O)c1.Cl | 3.45
60 | Cc1c(Cl)cnc(NC(=O)COC(=O)c2nn(C)c(=O)c3ccccc23)c1Cl | -1.18
61 | Cc1nnsc1C(=O)Nc1ccc(Cl)cc1 | -7.64
62 | C=CCn1c(SCC(=O)c2c(N)n(C)c(=O)n(C)c2=O)nnc1-c1ccccc1F | 8.2
63 | CC(=O)Nc1ccc(OS(=O)(=O)c2ccccc2C)cc1 | 23.5
64 | Cc1cc(NC(=O)CCN2CC(C)OC(C)C2)ccc1Br.Cl (stereo not shown) | -7.73
65 | CCN1C(=O)[C@H]2[C@@H](c3ccc(-c4ccc(Cl)c(Cl)c4)cc3)N[C@@](C)(C(=O)OC)[C@H]2C1=O.O=C(O)C(F)(F)F | 10.6
66 | C=CCn1c(SCC(=O)Nc2ccc(Cl)cn2)nnc1C1CC1 | -5.04
67 | Cc1cc(C)c(C#N)c(SCC(=O)N2CCN(Cc3ccccc3)CC2)n1 | -13.7
68 | O=S1(=O)N=C(N(CCO)/N=C/c2ccccc2F)c2ccccc21 | -3.55
69 | CCOC(=O)C1CCN(c2c(Nc3ccc(C)c(C)c3)c(=O)c2=O)CC1 | -12.6

Row | Structure (SMILES) | hERG current change (%, negative = inhibition) at 10uM [%]
70 | C=CCOc1cccc(C(=O)N(C)C2CCCN(Cc3ccccc3F)C2)c1 (stereo not shown) | -7.06
71 | CC(C(=O)c1ccc(Cl)cc1Cl)n1cncn1.O=[N+]([O-])O (stereo not shown) | 6.07
72 | C[N+](C)=C1SCC(C)(/C=N/O)S1.[Br-] (stereo not shown) | 17.4
73 | O=C(NC1CC1)c1cc(OCC(F)(F)F)ccc1OCC(F)(F)F | -7.48
74 | Cc1cc(=S)cc(C)n1CCO | 15.8
75 | Cc1c(Cc2ccccc2)c(=O)oc2cc(OCC(=O)N3CCC(C(N)=O)CC3)ccc12 | -5.95
76 | O=C([O-])c1ccc(-[n+]2c(-c3ccccc3)cc(-c3ccccc3)cc2-c2ccccc2)cc1 | -0.807
77 | Cc1ccnc(N/C=C(/NC(=O)c2ccccc2)C(=O)N/N=C\c2ccc(Cl)cc2)n1 | -22.6
78 | CC(C)N(Cc1ccccc1)C(=O)CCc1ccccc1 | -9.16
79 | O=S(=O)(Nc1ncccn1)c1ccc(-n2cnnn2)cc1 | 9.22
80 | CCc1nnc(NC(=O)CSc2nnc(C(C)NC(=O)c3ccccc3)n2C)s1 (stereo not shown) | 29.3
81 | Cl.O=C(Cc1ccccn1)Nc1ccccc1 | 7.99
82 | CCN(CCn1cccn1)C(=O)c1cccc(OC2CCN(S(C)(=O)=O)CC2)c1 | 14.1
83 | COc1ccc(C)cc1NC(=O)CN(c1ccc(F)cc1)S(C)(=O)=O | -22.8
84 | CCCCC(=O)Nc1cccc(-c2cn3ccsc3n2)c1 | -2.04
85 | CCCCC1=CC2=CC(=O)C(C)(OC(=O)CC)C(=O)C2=CN1CCCCO (stereo not shown) | 0.395
86 | CC(OC(=O)CCOc1ccccc1)C(=O)Nc1ccc(Cl)cn1 (stereo not shown) | 5.41
87 | CC(C)(C)C(=O)NCCCc1nc2ccccc2n1CCCOc1ccc(Cl)cc1 | -57.2
88 | COC(=O)c1ccc(Oc2nc(NC(C)C)nc(NC(C)C)n2)cc1 | 7.64
89 | CCCCNS(=O)(=O)c1ccc(OCC(=O)OC)cc1 | -33.1
90 | CCNC(=O)Cn1cc(C(F)(F)F)cc(Cl)c1=O | 4.71
91 | CCCNC(=O)COc1ccc2c(=O)c(Oc3ccccc3F)coc2c1 | -61.6

— publication PMC4336329 (PLoS ONE, 2015)
